Test results as given in PubChem BioAssay AID504832 (National Center for Advancing Translational Sciences (NCATS), 2011).
In all, about 310,000 compounds went through this assay and about 18,000 (5.8%) were called active. The inconclusive results got no clear call from the source; some entries with a clear call stand among them for comparison. The call rests on the fitted dose curve; in most records, active means well fitted inhibition curve with a large enough effect; inconclusive means small, poorly fitted or top-dose-only effect, or another doubt; inactive means no such curve, though single readings can be large or run the other way. No potency is given beside an inconclusive call; the fits are too rough.

Experiment: Primary qHTS for delayed death inhibitors of the malarial parasite plastid, 48 hour incubation
Conditions: P. falciparum luciferase growth in erythrocytes; series mostly up to 28.7 µM; activity change, negative = inhibition: at the top concentration
Method in brief: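 A one-generation exposure of luciferase-tagged malaria parasites in RPMI 1640/Albumax erythrocyte culture, 37 C and 5% CO2. Inhibition is inferred from decreased luminescence after adding detection reagent.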
On the % scale 0 is the no-effect control and ±100 the full control effect; potency means the concentration at half of the fitted maximal effect; tags describe the fitted curve by direction and shape.

SMILES	Potency	activity change, negative = inhibition
O=C(c1c(F)c(F)c(F)c(F)c1F)N1CCN(c2cccc(C(F)(F)F)c2)CC1	inconclusive [inhibitor, single point]	–
Cn1c(N)c(C(=O)CSc2nn(-c3ccc(F)cc3)c(=S)s2)c(=O)n(C)c1=O	inconclusive [inhibitor, single point]	–
CC(C)(C)C1CCc2c(sc(NC(=O)C3CC=CCC3C(=O)O)c2C#N)C1 (configuration not stated)	inconclusive [inhibitor, full curve, poor fit]	–
CCCN1C(=O)c2ccccc2NC1c1ccc(OC)cc1OC (configuration not stated)	inconclusive [inhibitor, partial curve, poor fit]	–
CC(C)(C)c1csc(NC(=O)c2cccnc2)n1	inconclusive [inhibitor, partial curve, poor fit]	–
NC(=O)Nc1ccc(C(=O)OCC(=O)Nc2cccc(S(=O)(=O)NC3=NCCC3)c2)cc1	inconclusive [inhibitor, partial curve, poor fit]	–
C(=N\Nc1nc2ccccc2[nH]1)/c1cccc2nccnc12	inconclusive [inhibitor, full curve]	–
CCN(C(=O)COC(=O)c1ccc2ccccc2c1)c1c(N)n(Cc2ccccc2)c(=O)[nH]c1=O	inconclusive [inhibitor, single point]	–
CCCCn1c(N)c(N(CC(C)C)C(=O)c2cc(Cl)nc3ccccc23)c(=O)[nH]c1=O	inconclusive [inhibitor, single point]	–
CCOC(=O)N1CCN(C(=O)CSc2nnc(-c3cc(OC)ccc3OC)o2)CC1	inconclusive [inhibitor, single point]	–
COC(=O)c1sccc1NC(=O)CN(C)NS(=O)(=O)c1ccc(F)cc1	–	inactive: -21%
COc1cc(-c2nc3sc(C)c(C)c3c(=O)o2)cc(OC)c1OC	–	inactive: 0%
Cc1nn(Cc2noc(C(=O)NCCc3ccccn3)n2)c(C)c1Br	–	inactive: -5.63%
Cc1ccc(CONC(=O)c2cccc([N+](=O)[O-])c2)cc1	–	inactive: 21.7%
CCOc1ccc(OCCC(=O)N(CCC2=CCCCC2)c2c(N)n(Cc3ccccc3)c(=O)[nH]c2=O)cc1	inconclusive [inhibitor, single point]	–
O=C(COc1ccc2ccccc2c1)N/N=C/C1CC=CCC1 (configuration not stated)	–	inactive: -2.95%
COc1ccccc1-c1cn[nH]c1-c1ccc(OCc2ccccc2)cc1O	active: 6.57 µM	–
Cc1cccc(CNC(=O)C(C)n2nc(C)c3c(C)n(-c4ccccc4)nc3c2=O)c1 (configuration not stated)	inconclusive [inhibitor, single point]	–
CS(=O)(=O)N(Cc1ccc(C(=O)Nc2ccccc2Sc2ccccc2)cc1)c1ccccc1	inconclusive [inhibitor, partial curve, poor fit]	–
c1ccc(-c2nnc(SCc3nc4ccccc4[nH]3)n2Cc2ccco2)cc1	–	inactive: -4.5%
O/N=C\c1cccn1-c1ccc(Br)cc1	inconclusive [inhibitor, single point]	–
CC(C)(C)C(=O)Nc1ccccc1N1CCN(c2ccc(F)cc2)CC1	inconclusive [inhibitor, single point]	–
COc1ccc(Cl)c2sc(NC(=O)C3=COCCO3)nc12	–	inactive: 112%

SMILES	Potency	activity change, negative = inhibition
CCn1c(=O)c(CCC(=O)N2CCN(c3ccccn3)CC2)c(C)c2c(C)nn(-c3ccccc3)c21	inconclusive [inhibitor, partial curve, poor fit]	–
CCOc1ccc(NC(=O)CN(C)C(=O)c2c(-c3c(F)cccc3Cl)noc2C)cc1OCC	inconclusive [inhibitor, partial curve]	–
COc1ccc(N(CC(=O)Nc2ccc(Cl)cc2)S(=O)(=O)c2c(C)n[nH]c2C)cc1	inconclusive [inhibitor, partial curve, poor fit]	–
Cc1cccc(NC(=O)Cc2ccc(-c3ccccc3)cc2)n1	–	inactive: 7.45%
CC12CCC(C(=O)Nc3ncc([N+](=O)[O-])s3)(OC1=O)C2(C)C (configuration not stated)	inconclusive [inhibitor, full curve, poor fit]	–
CN(C)CCNS(=O)(=O)c1ccc(N2CCc3ccccc32)c([N+](=O)[O-])c1	inconclusive [inhibitor, single point]	–
C#CNC(=O)C1(CC=C)CCNCC1	inconclusive [inhibitor, partial curve, poor fit]	–
COC(=O)c1ccc(NC(=O)CCc2nnc3ccc(NCc4ccco4)nn23)cc1	inconclusive [inhibitor, partial curve, poor fit]	–
CCCCNS(=O)(=O)c1ccc(NC(=O)C(Sc2ccccc2)c2ccccc2)cc1 (configuration not stated)	active: 10.4 µM	–
COc1ccc(CCN(C)C(=O)c2c(C)noc2C)cc1OC	–	inactive: -11.9%
C=CCc1ccc(OC(=O)c2ccccc2)c(OC)c1	–	inactive: 33.2%
N#Cc1ccc(C(=O)Nc2ccn(-c3ccccc3)n2)cc1	inconclusive [inhibitor, partial curve, poor fit]	–
COc1ccc(CNC(=O)CCCn2nc([N+](=O)[O-])cc2C)cc1	inconclusive [inhibitor, single point]	–
CCCCCNCc1ccc(OCc2ccc(Cl)nc2)c(OC)c1	inconclusive [inhibitor, single point]	–
CCC1=NN(C(=O)c2ccccc2Br)C(O)(c2ccc(Br)cc2)C1 (configuration not stated)	inconclusive [inhibitor, partial curve, poor fit]	–
CC1(c2ccccc2)CC(C)(C)N(C(=O)CSc2nnc(N)s2)c2ccccc21 (configuration not stated)	inconclusive [inhibitor, single point]	–
CCCCn1c(O)c(C(C)=Nc2ccc3c(c2)CCC3)c(=O)[nH]c1=O	inconclusive [inhibitor, partial curve, poor fit]	–
COc1ccc(C(CNC(=O)c2oc3ccc(C)cc3c2C)N2CCCCC2)cc1 (configuration not stated)	inconclusive [inhibitor, single point]	–
O=C(O)CC12CC3CC(C1)CC(n1ncc(NCC4CCCO4)c(Cl)c1=O)(C3)C2 (configuration not stated)	–	inactive: 1.8%
COCCCn1c(SCCc2ccccc2)nc2cc(OC)c(OC)cc2c1=N	active: 11.7 µM	–
CCN(CCO)c1ccc(-n2c(N)c(C(=O)OC)c3nc4ccccc4nc32)cc1	inconclusive [inhibitor, single point]	–
Cc1c(Cl)sn(-c2ccc(Cl)cc2)c1=O	inconclusive [inhibitor, single point]	–
CCN(Cc1ccccc1)C(=O)CCCOc1ccccc1	–	inactive: 47.4%

SMILES	Potency	activity change, negative = inhibition
COc1cc2cc(CCCOC(=O)c3ccc4c(c3)OCO4)oc(=O)c2cc1OC	–	inactive: 2.69%
CS(=O)(=O)c1ccccc1-c1nc(-c2ccc([N+](=O)[O-])cc2)no1	inconclusive [inhibitor, single point]	–
Cc1ccc(-n2nc(C)c(/C=N/n3c(C)n[nH]c3=S)c2Cl)cc1	inconclusive [inhibitor, single point]	–
Cc1ccc2[nH]cc(C(=O)CCl)c2c1	inconclusive [inhibitor, single point]	–
Cc1coc2cc3oc(=O)c4c(c3cc12)CCC4	–	inactive: 16.1%
COc1ccc(CCNC(=O)c2c(N)n(CCN3CCOCC3)c3nc4ccccc4nc23)cc1	inconclusive [inhibitor, single point]	–
O=C(NC(=S)N1CCN(C/C=C/c2ccccc2)CC1)c1ccc(F)cc1	active: 10.4 µM	–
CC1=NN(C(C#N)c2ccc([N+](=O)[O-])cc2)C(C)(C)C1 (configuration not stated)	inconclusive [inhibitor, partial curve, poor fit]	–
COC(=O)C1C2c3ccccc3OC1(C)N=c1s/c(=C/c3cn(C)nc3C)c(=O)n12 (configuration not stated)	inconclusive [inhibitor, single point]	–
COCCn1c(SCCOc2ccccc2)nc2ccccc2c1=O	inconclusive [inhibitor, partial curve, poor fit]	–
CNC(=S)NNC(=O)c1ccccc1Cl	inconclusive [inhibitor, partial curve, poor fit]	–
CC1Cc2ccccc2N1Cc1cc(=O)n2ccsc2n1 (configuration not stated)	inconclusive [inhibitor, single point]	–
CCN(Cc1ccccc1)C(c1cccc(C#N)c1)c1nnnn1C(C)(C)C (configuration not stated)	active: 10.4 µM	–
NC(=O)c1nsc(C(=O)N(Cc2ccc(F)cc2)C(C(=O)NC2CCCC2)c2ccco2)c1N (configuration not stated)	inconclusive [inhibitor, partial curve]	–
N#CC1=C2SCN(c3ccccc3)CN2C(=O)CC1c1cccs1 (configuration not stated)	inconclusive [inhibitor, single point]	–
CC1CCN(C(=O)CN(c2cccc(F)c2)S(C)(=O)=O)CC1	–	inactive: 0%
COc1ccccc1N1CCN(CC(=O)Nc2ccnn2C2CCCC2)CC1	inconclusive [inhibitor, single point]	–
CCN1C(=O)[C@H]2[C@@H](c3ccc(-c4ccc(OC)cc4)c(OC)c3)N[C@@](C)(C(=O)OC)[C@H]2C1=O	inconclusive [inhibitor, single point]	–
CC(=O)CC(=O)Nc1ncccn1	–	inactive: 8.48%
COc1ccc(N(CC(=O)NCc2ccccc2OC)S(=O)(=O)c2ccc(C)cc2)cc1Cl	inconclusive [inhibitor, partial curve]	–
CCN(CC)CCn1nc2c3c(cccc3c1=O)-c1ccccc1-2	active: 4.15 µM	–
